In one assay the test system is HSkMC. The assay is described as follows: cytotoxicity call (relative viability < 0.9). Particulars: 10 µM.
A further assay deals with HepG2. The assay is described as follows: cytotoxicity call (relative viability < 0.9). Particulars: 10 µM.
The next assay concerns S. aureus RN4220. The assay is described as follows: growth inhibition call (relative growth <= 0.2). Particulars: 50 µM.

SMILES strings stand for the structures. The list shows a part of the results.

With `Cc1noc(C)c1NC(=O)Nc1ccc2c(c1)C(=O)N([C@@H](C)CO)C[C@H](C)[C@@H](CN(C)S(C)(=O)=O)O2`, the cytotoxicity call with HSkMC and in the assay with HepG2 was “inactive” throughout. In the assay on S. aureus RN4220, the growth inhibition call is “inactive”.

For `COc1ccccc1S(=O)(=O)N[C@H]1C=C[C@H](CC(=O)N2CCOCC2)O[C@H]1CO`, the cytotoxicity call with HSkMC and in the assay with HepG2 was “inactive” throughout. Also, in the assay with S. aureus RN4220, the growth inhibition call was “inactive”.

Consider `C[C@H](CO)N1C[C@H](C)[C@H](CN(C)CC2CCCCC2)OCCCC[C@H](C)Oc2ccc(NC(=O)Nc3cccc4ccccc34)cc2C1=O`, for which the cytotoxicity call in the assay with HSkMC and with HepG2 was “active” in each case. For the same compound, the growth inhibition call in the assay on S. aureus RN4220 was “inactive”.

On to `C[C@@H]1CCCCO[C@H](CN(C)Cc2ccc(C(=O)O)cc2)[C@@H](C)CN([C@@H](C)CO)C(=O)c2cc(NS(=O)(=O)c3ccccc3)ccc2O1`, for which the cytotoxicity call with HSkMC and in the assay on HepG2 was “inactive” throughout. Also, the growth inhibition call with S. aureus RN4220 is “inactive”.

As to `NCc1ccc(S(=O)(=O)N2CCOCC2)cc1`, the cytotoxicity call in the assay on HSkMC and in the assay on HepG2 was “inactive” in each case. The growth inhibition call in the assay on S. aureus RN4220 was “inactive”.

Consider `C[C@@H]1CN([C@H](C)CO)C(=O)c2cccc(NS(=O)(=O)c3cccs3)c2O[C@H]1CN(C)Cc1ccc(-c2ccccc2)cc1`, for which the cytotoxicity call in the assay with HSkMC and in the assay with HepG2 was “inactive” throughout. Moreover, the growth inhibition call with S. aureus RN4220 is “inactive”.

On to `C[C@@H]1CN([C@H](C)CO)C(=O)c2cccc(NC(=O)c3ccncc3)c2O[C@@H]1CN(C)Cc1ccc(C(=O)O)cc1`, for which the cytotoxicity call in the assay with HSkMC and in the assay with HepG2 was “inactive” each time. Besides, the growth inhibition call in the assay on S. aureus RN4220 was “inactive”.

Regarding `O=c1nc[nH]c2nc[nH]c12`, the cytotoxicity call in the assay with HSkMC and in the assay on HepG2 was “inactive” each time. For the same compound, in the assay with S. aureus RN4220, the growth inhibition call was “inactive”.

With `C[C@@H]1CN([C@@H](C)CO)C(=O)CCCn2cc(nn2)CO[C@H]1CN(C)S(=O)(=O)c1ccc(-n2cccn2)cc1`, the cytotoxicity call in the assay with HSkMC and in the assay with HepG2 was “inactive” in each case. Also, the growth inhibition call with S. aureus RN4220 was “inactive”.

Take `CC(=O)N1[C@@H]2c3cccc(=O)n3C[C@@H]2[C@@H](CO)[C@@H]1C(=O)N1CCc2ccccc2C1`: the cytotoxicity call in the assay on HSkMC and in the assay with HepG2 was “inactive” each time. Moreover, the growth inhibition call in the assay on S. aureus RN4220 is “inactive”.

For `C[C@H]1CN([C@@H](C)CO)C(=O)Cc2cc(NC(=O)C3CC3)ccc2O[C@@H]1CN(C)C(=O)Nc1ccc2c(c1)OCO2`, the cytotoxicity call with HSkMC and in the assay with HepG2 was “inactive” throughout. For the same compound, the growth inhibition call with S. aureus RN4220 was “inactive”.

Consider `CC(C)NC(=O)N(C)C[C@H]1Oc2ccc(NC(=O)CCN3CCOCC3)cc2CC(=O)N([C@H](C)CO)C[C@@H]1C`, for which the cytotoxicity call in the assay on HSkMC and with HepG2 was “inactive” throughout. Moreover, the growth inhibition call in the assay with S. aureus RN4220 was “inactive”.

As to `CCNC(=O)C[C@H]1C=C[C@@H](NC(=O)C2CCOCC2)[C@H](CO)O1`, the cytotoxicity call in the assay with HSkMC and with HepG2 was “inactive” throughout. The growth inhibition call in the assay on S. aureus RN4220 is “inactive”.

As to `CC(C)NC(=O)Nc1cccc2c1O[C@@H](CN(C)Cc1ccc(C(=O)O)cc1)[C@@H](C)CN([C@@H](C)CO)C2=O`, the cytotoxicity call with HSkMC and in the assay on HepG2 was “inactive” throughout. Also, in the assay on S. aureus RN4220, the growth inhibition call was “inactive”.

On to `O=S(=O)(NCC[C@@H]1CC[C@@H](NS(=O)(=O)c2cccc(Cl)c2)[C@H](CO)O1)c1cccc(F)c1`, for which the cytotoxicity call with HSkMC and in the assay on HepG2 was “inactive” in each case. The growth inhibition call in the assay with S. aureus RN4220 was “inactive”.

In the case of `O=C(C[C@H]1CC[C@@H]2[C@H](COC[C@H](O)CN2C(=O)c2ccccc2)O1)N1CCOCC1`, the cytotoxicity call in the assay on HSkMC and in the assay on HepG2 was “inactive” throughout. In addition, the growth inhibition call in the assay on S. aureus RN4220 is “inactive”.

Regarding `COCC(=O)Nc1ccc2c(c1)OC[C@H](C)N(C(=O)Cc1ccccn1)C[C@H](C)[C@H](OC)CN(C)C2=O`, the cytotoxicity call in the assay with HSkMC and in the assay with HepG2 was “inactive” each time. In addition, the growth inhibition call with S. aureus RN4220 was “inactive”.

Consider `Cn1cnc(CCNC(=O)C[C@H]2CC[C@@H]3[C@H](COC[C@@H](O)CN3C(=O)Nc3ccc(Cl)cc3)O2)c1`, for which the cytotoxicity call with HSkMC and in the assay on HepG2 was “inactive” throughout. Further, the growth inhibition call with S. aureus RN4220 was “inactive”.

For the compound `C[C@@H]1CN([C@H](C)CO)S(=O)(=O)c2ccc(C#CC(C)(C)O)cc2O[C@H]1CN(C)C(=O)C1CCCCC1`, the cytotoxicity call in the assay on HSkMC and in the assay on HepG2 was “inactive” each time. For the same compound, in the assay with S. aureus RN4220, the growth inhibition call is “inactive”.

In the case of `COc1ccc(C(=O)NCC(=O)O)cc1`, the cytotoxicity call in the assay with HSkMC and in the assay with HepG2 was “inactive” in each case. In the assay on S. aureus RN4220, the growth inhibition call is “inactive”.

As for `Cc1noc(C)c1S(=O)(=O)Nc1ccc2c(c1)C(=O)N([C@@H](C)CO)C[C@@H](C)[C@@H](CN(C)C(=O)Nc1ccc(F)cc1)OCCCC[C@@H](C)O2`, the cytotoxicity call in the assay with HSkMC and in the assay with HepG2 was “inactive” throughout. In the assay on S. aureus RN4220, the growth inhibition call was “inactive”.

As for `C[C@@H]1CCCCO[C@H](CN(C)CC2CCCCC2)[C@@H](C)CN([C@H](C)CO)C(=O)c2cc(NC(=O)Nc3ccccc3)ccc2O1`, the cytotoxicity call in the assay with HSkMC and in the assay with HepG2 was “inactive” each time. Besides, the growth inhibition call in the assay with S. aureus RN4220 is “inactive”.

Turning to `O=C(N[C@H]1CC=CC[C@H](CC(=O)N(CCO)Cc2ccccc2)C(=O)N[C@@H](Cc2ccccc2)COC1=O)OCC1c2ccccc2-c2ccccc21`, the cytotoxicity call in the assay on HSkMC and in the assay on HepG2 was “active” each time. Also, the growth inhibition call in the assay with S. aureus RN4220 was “inactive”.

Turning to `C[C@H]1CN([C@@H](C)CO)C(=O)c2cc(NC(=O)Cn3cnnn3)ccc2O[C@H]1CN(C)S(=O)(=O)c1ccccc1`, the cytotoxicity call with HSkMC and in the assay with HepG2 was “inactive” in each case. In addition, in the assay on S. aureus RN4220, the growth inhibition call is “inactive”.

As for `CCOc1cc(C)nc(N)n1`, the cytotoxicity call in the assay on HSkMC (human skeletal muscle cells) and with HepG2 was “inactive” throughout. Moreover, the growth inhibition call in the assay with S. aureus RN4220 is “inactive”.

Regarding `C[C@@H]1CN([C@@H](C)CO)C(=O)c2cc(-c3cccnc3)cnc2O[C@@H]1CN(C)Cc1ccc(Oc2ccccc2)cc1`, the cytotoxicity call with HSkMC and in the assay with HepG2 was “inactive” each time. Further, in the assay on S. aureus RN4220, the growth inhibition call is “inactive”.

As to `Cc1noc(C)c1S(=O)(=O)Nc1ccc2c(c1)CC(=O)N([C@@H](C)CO)C[C@@H](C)[C@H](CN(C)Cc1ccc(Oc3ccccc3)cc1)O2`, the cytotoxicity call in the assay with HSkMC and in the assay on HepG2 was “inactive” each time. The growth inhibition call in the assay on S. aureus RN4220 was “inactive”.

(Values after the antibiotic and cytotoxicity screens of Wong et al. (2023).)
